# From the supplement of paper PMC8728848
# The list shows a part of the results.
# What was measured:
# Experiment in all cases: glycan array binding signal (z-score within array); higher = stronger binding
# Conditions in all cases: glycan notation: IUPAC condensed, linker removed
# [1] = biological target: Neu5Ac(a2-3)Gal(b1-4)GlcNAc(b1-3)Gal(b1-4)GlcNAc(b1-2)Man(a1-3)[Neu5Ac(a2-3)Gal(b1-4)GlcNAc(b1-3)Gal(b1-4)GlcNAc(b1-2)Man(a1-6)]Man(b1-4)GlcNAc(b1-4)GlcNAc
# Outline: (§1)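 Glycan array binding is given as a within-array Z-score, which can be read as non-binding when negative. The arrays, 3228 of them, came from the Consortium for Functional Glycomics database and were retained only where the protein sequence was available. Z-scores were averaged across arrays of the same protein sequence at different concentrations or buffers and across linkers.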
# [2] = biological target: Neu5Ac(a2-3)Gal(b1-4)GlcNAc(b1-3)Gal(b1-4)GlcNAc(b1-3)Gal(b1-4)GlcNAc
# Outline: as §1
# [3] = biological target: Neu5Ac(a2-3)Gal(b1-4)GlcNAc(b1-3)Gal(b1-4)GlcNAc(b1-3)Gal(b1-4)GlcNAc(b1-2)Man(a1-3)[Neu5Ac(a2-3)Gal(b1-4)GlcNAc(b1-3)Gal(b1-4)GlcNAc(b1-3)Gal(b1-4)GlcNAc(b1-2)Man(a1-6)]GalNAc
# Outline: as §1
# [4] = biological target: Neu5Ac(a2-3)Gal(b1-4)GlcNAc(b1-3)Gal(b1-4)GlcNAc(b1-3)GalNAc
# Outline: as §1
# [5] = biological target: Neu5Ac(a2-3)Gal(b1-4)GlcNAc(b1-3)Gal(b1-4)GlcNAc(b1-3)[Neu5Ac(a2-3)Gal(b1-4)GlcNAc(b1-3)Gal(b1-4)GlcNAc(b1-6)]GalNAc
# Outline: as §1
# [6] = biological target: Neu5Ac(a2-3)Gal(b1-4)GlcNAc(b1-3)Gal(b1-4)GlcNAc(b1-6)[Gal(b1-3)]GalNAc
# Outline: as §1
# [7] = biological target: Neu5Ac(a2-3)Gal(b1-4)GlcNAc(b1-3)Gal(b1-4)[Fuc(a1-3)]GlcNAc
# Outline: as §1
# [8] = biological target: Neu5Ac(a2-3)Gal(b1-4)GlcNAc(b1-3)GalNAc
# Outline: as §1
# [9] = biological target: Neu5Ac(a2-3)Gal(b1-4)GlcNAc(b1-3)[Neu5Ac(a2-3)Gal(b1-4)GlcNAc(b1-6)]GalNAc
# Outline: as §1
# [10] = biological target: Neu5Ac(a2-3)Gal(b1-4)GlcNAc(b1-6)GalNAc
# Outline: as §1
# [11] = biological target: Neu5Ac(a2-3)Gal(b1-4)GlcNAc(b1-6)[Gal(b1-3)]GalNAc
# Outline: as §1
# [12] = biological target: Neu5Ac(a2-3)Gal(b1-4)GlcNAc(b1-6)[Neu5Ac(a2-3)Gal(b1-3)]GalNAc
# Outline: as §1
# [13] = biological target: Neu5Ac(a2-3)Gal(b1-4)GlcNAc6S
# Outline: as §1
# [14] = biological target: Neu5Ac(a2-3)Gal(b1-4)[Fuc(a1-3)]GlcNAc
# Outline: as §1
# [15] = biological target: Neu5Ac(a2-3)Gal(b1-4)[Fuc(a1-3)]GlcNAc(b1-2)Man
# Outline: as §1
# [16] = biological target: Neu5Ac(a2-3)Gal(b1-4)[Fuc(a1-3)]GlcNAc(b1-3)Gal
# Outline: as §1
# [17] = biological target: Neu5Ac(a2-3)Gal(b1-4)[Fuc(a1-3)]GlcNAc(b1-3)Gal(b1-4)GlcNAc
# Outline: as §1
# [18] = biological target: Neu5Ac(a2-3)Gal(b1-4)[Fuc(a1-3)]GlcNAc(b1-3)Gal(b1-4)[Fuc(a1-3)]GlcNAc(b1-3)Gal(b1-4)[Fuc(a1-3)]GlcNAc
# Outline: as §1
# [19] = biological target: Neu5Ac(a2-3)Gal(b1-4)[Fuc(a1-3)]GlcNAc(b1-3)GalNAc
# Outline: as §1
# [20] = biological target: Neu5Ac(a2-3)Gal(b1-4)[Fuc(a1-3)]GlcNAc(b1-6)[Gal(b1-3)]GalNAc
# Outline: as §1
# [21] = biological target: Neu5Ac(a2-3)Gal(b1-4)[Fuc(a1-3)]GlcNAc(b1-6)[Neu5Ac(a2-3)Gal(b1-3)]GalNAc
# Outline: as §1
# [22] = biological target: Neu5Ac(a2-3)Gal(b1-4)[Fuc(a1-3)]GlcNAc6S
# Outline: as §1
# [23] = biological target: Neu5Ac(a2-3)Gal6S(b1-4)GlcNAc
# Outline: as §1
# [24] = biological target: Neu5Ac(a2-3)Gal6S(b1-4)[Fuc(a1-3)]GlcNAc
# Outline: as §1
# Neu5Ac(a2-3)GalNAc = biological target: Neu5Ac(a2-3)GalNAc
# Outline: as §1
# [25] = biological target: Neu5Ac(a2-3)GalNAc(b1-4)GlcNAc
# Outline: as §1
# [26] = biological target: Neu5Ac(a2-3)[GalNAc(b1-4)]Gal(b1-4)Glc
# Outline: as §1
# [27] = biological target: Neu5Ac(a2-3)[GalNAc(b1-4)]Gal(b1-4)GlcNAc
# Outline: as §1
# [28] = biological target: Neu5Ac(a2-3)[GalNAc(b1-4)]Gal(b1-4)GlcNAc(b1-3)GalNAc
# Outline: as §1
# [29] = biological target: Neu5Ac(a2-3)[Neu5Ac(a2-6)]GalNAc
# Outline: as §1
# Neu5Ac(a2-6)Gal = biological target: Neu5Ac(a2-6)Gal
# Outline: as §1
# [30] = biological target: Neu5Ac(a2-6)Gal(b1-3)GlcNAc(b1-3)[Gal(b1-4)GlcNAc(b1-6)]Gal(b1-4)Glc
# Outline: as §1
# Neu5Ac(a2-6)Gal(b1-4)Glc = biological target: Neu5Ac(a2-6)Gal(b1-4)Glc
# Outline: as §1
# [31] = biological target: Neu5Ac(a2-6)Gal(b1-4)GlcNAc
# Outline: as §1
# [32] = biological target: Neu5Ac(a2-6)Gal(b1-4)GlcNAc(b1-2)Man
# Outline: as §1
# [33] = biological target: Neu5Ac(a2-6)Gal(b1-4)GlcNAc(b1-2)Man(a1-3)Man(b1-4)GlcNAc(b1-4)GlcNAc
# Outline: as §1
# [34] = biological target: Neu5Ac(a2-6)Gal(b1-4)GlcNAc(b1-2)Man(a1-3)[Gal(b1-4)GlcNAc(b1-2)Man(a1-6)]Man(b1-4)GlcNAc(b1-4)GlcNAc
# Outline: as §1
# [35] = biological target: Neu5Ac(a2-6)Gal(b1-4)GlcNAc(b1-2)Man(a1-3)[GlcNAc(b1-2)Man(a1-6)]Man(b1-4)GlcNAc(b1-4)GlcNAc
# Outline: as §1
# [36] = biological target: Neu5Ac(a2-6)Gal(b1-4)GlcNAc(b1-2)Man(a1-3)[GlcNAc(b1-2)Man(b1-4)GlcNAc(b1-2)Man(a1-6)]Man(b1-4)GlcNAc(b1-4)GlcNAc
# Outline: as §1
# [37] = biological target: Neu5Ac(a2-6)Gal(b1-4)GlcNAc(b1-2)Man(a1-3)[GlcNAc(b1-4)][Neu5Ac(a2-6)Gal(b1-4)GlcNAc(b1-2)Man(a1-6)]Man(b1-4)GlcNAc(b1-4)GlcNAc
# Outline: as §1
# [38] = biological target: Neu5Ac(a2-6)Gal(b1-4)GlcNAc(b1-2)Man(a1-3)[Man(a1-6)]Man(b1-4)GlcNAc(b1-4)GlcNAc
# Outline: as §1
# [39] = biological target: Neu5Ac(a2-6)Gal(b1-4)GlcNAc(b1-2)Man(a1-3)[Neu5Ac(a2-3)Gal(b1-4)GlcNAc(b1-2)Man(a1-6)]Man(b1-4)GlcNAc(b1-4)GlcNAc
# Outline: as §1
# [40] = biological target: Neu5Ac(a2-6)Gal(b1-4)GlcNAc(b1-2)Man(a1-3)[Neu5Ac(a2-6)Gal(b1-4)GlcNAc(b1-2)Man(a1-6)]Man(b1-4)GlcNAc(b1-4)GlcNAc
# Outline: as §1
# [41] = biological target: Neu5Ac(a2-6)Gal(b1-4)GlcNAc(b1-2)Man(a1-3)[Neu5Ac(a2-6)Gal(b1-4)GlcNAc(b1-2)Man(a1-6)]Man(b1-4)GlcNAc(b1-4)[Fuc(a1-6)]GlcNAc
# Outline: as §1
# [42] = biological target: Neu5Ac(a2-6)Gal(b1-4)GlcNAc(b1-2)Man(a1-6)Man(b1-4)GlcNAc(b1-4)GlcNAc
# Outline: as §1
binder,measurement,setting,value
"HPA (Helix pomatia), Q2F1K8 (protein) MQAFYSGLLLLCVVAFAAAQRVQSGKIDCGNDAGWAKVPSDDPGRDNTRELAKNITFASPYCRPPVVLLSITQLDVEQSQNLRVIARLYSVSPTGFKASCYTWHNTKVYSMSISWISIENY",glycan array binding signal (z-score),[1],0.641
same,glycan array binding signal (z-score),[2],-0.202
same,glycan array binding signal (z-score),[3],0.915
same,glycan array binding signal (z-score),[4],-0.363
same,glycan array binding signal (z-score),[5],0.138
same,glycan array binding signal (z-score),[6],0.16
same,glycan array binding signal (z-score),[7],-0.265
same,glycan array binding signal (z-score),[8],-0.366
same,glycan array binding signal (z-score),[9],-0.279
same,glycan array binding signal (z-score),[10],-0.396
same,glycan array binding signal (z-score),[11],-0.24
same,glycan array binding signal (z-score),[12],-0.231
same,glycan array binding signal (z-score),[13],-0.36
same,glycan array binding signal (z-score),[14],-0.308
same,glycan array binding signal (z-score),[15],-0.061
same,glycan array binding signal (z-score),[16],-0.334
same,glycan array binding signal (z-score),[17],0.04
same,glycan array binding signal (z-score),[18],-0.013
same,glycan array binding signal (z-score),[19],0.037
same,glycan array binding signal (z-score),[20],0.461
same,glycan array binding signal (z-score),[21],0.492
same,glycan array binding signal (z-score),[22],-0.308
same,glycan array binding signal (z-score),[23],-0.242
same,glycan array binding signal (z-score),[24],-0.329
same,glycan array binding signal (z-score),Neu5Ac(a2-3)GalNAc,-0.277
same,glycan array binding signal (z-score),[25],-0.242
same,glycan array binding signal (z-score),[26],-0.193
same,glycan array binding signal (z-score),[27],-0.296
same,glycan array binding signal (z-score),[28],0.393
same,glycan array binding signal (z-score),[29],-0.294
same,glycan array binding signal (z-score),Neu5Ac(a2-6)Gal,-0.152
same,glycan array binding signal (z-score),[30],-0.2
same,glycan array binding signal (z-score),Neu5Ac(a2-6)Gal(b1-4)Glc,-0.136
same,glycan array binding signal (z-score),[31],-0.28
same,glycan array binding signal (z-score),[32],-0.191
same,glycan array binding signal (z-score),[33],-0.265
same,glycan array binding signal (z-score),[34],-0.26
same,glycan array binding signal (z-score),[35],-0.278
same,glycan array binding signal (z-score),[36],-0.017
same,glycan array binding signal (z-score),[37],-0.345
same,glycan array binding signal (z-score),[38],-0.129
same,glycan array binding signal (z-score),[39],-0.229
same,glycan array binding signal (z-score),[40],-0.241
same,glycan array binding signal (z-score),[41],0.309
same,glycan array binding signal (z-score),[42],-0.34
